The source gives no read counts; variants with many changes may rest on few reads.
B1: CPEB3 Ribozyme (parent)
chain: UAACAGGGGGCCACAGCAGAAGCGUUCACGUCGCAGCCCCUGUCAGAUUCUGGUGAAUCUGCGAAUUCUGCUGUAUAUCUC

Variants of: B1
Experiment: self-cleavage, relative activity (ratio to wild type); higher = more cleavage; in vitro, sequencing
How it was run: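 Relative activity compares each variant's cleaved/total read fraction with that of the unmutated ribozyme. To get these fractions, barcoded CPEB3 ribozyme libraries from rounds of error-prone PCR were transcribed with T7 RNA polymerase for 5 hours at 37°C and then given 15 min of DNase I treatment before EDTA was added. The RNAs were reverse transcribed with template switching and sequenced on Illumina, and DNA sequencing linked barcodes to variants. A minimum of 5 reads applied, and three batches were averaged.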

Variant | self-cleavage
U1C U25C U31C U60C A64U U72C | 0.14
U1C U25C U41A A65C | 0.56
U1C U25G A56G C79A | 0.06
U1C U26A A47G A77G U78A | 0.87
U1C U26A U31C | 0.5
U1C U26C A28C U80A | 0.06
U1C U26C A28G A35G U69C | 0.09
U1C U26C A77G | 0.72
U1C U31A A35U C38U U41C U54C | 0.07
U1C U31A A64G | 0.4
U1C U31A U43C | 0.15
U1C U31C U51C U58A C79U | 0.17
U1C U31C U80C | 0.74
U1C U31G U76A | 0.32
U1C U41A A45G | 0.4
U1C U41A G70C | 0.16
U1C U41A U43C C44A A65U | 0.11
U1C U41A U48C | 0.16
U1C U41A U49C U54C | 0.13
U1C U41A U54C U74G U80C | 0.28
U1C U41A U80C C81A | 0.42
U1C U41C G42A G73U | 0.2
U1C U41C U67C U76C A77U | 0.16
U1C U41G G42A | 0.18

Variant | self-cleavage
U1C U41G U78C | 0.34
U1C U43A U48C U67A | 0.16
U1C U43C A47G A57U A64U | 0.07
U1C U43C A57G U76A U80C | 0.31
U1C U43C A65G U72C | 0.12
U1C U43C U74C | 0.75
U1C U48C C68G U72C | 0.28
U1C U48C U54C G55A A56U | 0.17
U1C U48C U58A | 0.16
U1C U49C U74C | 0.28
U1C U51A A64G U72A U80C | 1.26
U1C U51G U54C | 1.03
U1C U54C A65G U74C | 0.59
U1C U54C A65U U72A U76C | 0.21
U1C U74A A77U | 1.12
U1G A2G A20U | 0.39
U1G A2G C44U A57G | 0.1
U1G A13G A20U U25A C44U | 0.07
U1G A15U G16A A18G U31C C40U U58A | 0.05
U1G A18U G46A C50U | 0.1
U1G A20G A35G U49C A65G U74C | 0.29
U1G A20G A35G U67C U76C | 1.14
U1G A28G U49A | 0.21
U1G A35G U54C C68U | 1.26

Variant | self-cleavage
U1G A45G U69A | 0.51
U1G A64U U66C | 0.3
U1G C17G A20C G36A U60A U69A U72A | 0.04
U1G C39G U41A G61U | 0.18
U1G G6U G10U U48C A56G | 0.23
U1G G8U A20G | 0.32
U1G G9C U54C | 0.43
U1G U25C C40A A56G A75G A77U | 0.27
U1G U25C C40A A75G | 0.28
U1G U41A A45U | 0.02
U1G U41A G61A U67C U69C U74C U80C | 0.06
U1G U41G A64C | 0.21
A2C A3G A75U | 1.11
A2C A3G C37G | 0.96
A2C A3G G19C A20G U43G U58A A64G | 0
A2C A5C C27U U66C | 0.25
A2C A13U A56U A64G | 0.26
A2C A13U U66C A77G | 0.39
A2C A15C A28C U48A U51A U76C | 0.08
A2C A15G C27G U54C U80C | 0.25
A2C A15G U31A U69A | 0.34
A2C A15U A64U | 0.21
A2C A21U G33U | 0.16
A2C A28G A45G U48G | 0.06

Variant | self-cleavage
A2C A28G U41C A77G | 0.49
A2C A28G U51A C62G A65G U72C | 0.14
A2C A35U A45G U72A | 0.22
A2C A45G U54C | 0.8
A2C A45G U74C U80C | 0.84
A2C A65C U69C U74A | 0.25
A2C C11G U41A A47G U78A | 0.05
A2C C11U A18C U26A A28U | 0.32
A2C C14U A28G C40U | 0.29
A2C G6A A15U A35U A45G U72A | 0.06
A2C G6U A18C A77G | 0.38
A2C G8A C39A | 0.08
A2C G19A U74G | 0.23
A2C U25C A28C U80C | 0.09
A2C U31G U41C C68A | 0.25
A2C U60A U69C | 0.18
A2G A3C A13G U41A G55U U58C | 0.07
A2G A3G A5G A15U U48C | 0.31
A2G A3G A5U U26C A64G | 0.49
A2G A3G A28G C39U U54C | 0.48
A2G A3G A35U A65G | 0.13
A2G A3G G9U A18U U31C | 0.14
A2G A3G G10A A18G U25C A57G | 0.69
A2G A3G G30A U60C | 0.37

Variant | self-cleavage
A2G A3G U25C A56U A64U | 0.09
A2G A3G U26C A47U U78C | 0.5
A2G A3G U43C U72A A77G | 0.41
A2G A3U A20C U31A A45G U72C | 0.08
A2G A3U C17G U26C | 0.05
A2G A3U G10A U72C U76C | 0.06
A2G A3U U43A U67C | 0.5
A2G A5C A21G A35C A45G U60C | 0.09
A2G A5C U76C | 1.08
A2G A5G A13U G33C U41A U54A U78C | 0.08
A2G A5G A13U U26C | 0.62
A2G A5G A15U | 0.84
A2G A5G A21G A57G U72C | 0.15
A2G A5G A45G A56G | 0.4
A2G A5G C34U | 0.37
A2G A5G G6A U26A U31C C40U U76C | 0.64
A2G A5G G7U U31A | 0.08
A2G A5G G10A U43C U54C G63A | 0.45
A2G A5G U25C U48C A57G U69A | 0.3
A2G A5G U43A A45G | 0.61
A2G A5U A15G U43C U48C A64C U74C | 0.1
A2G A5U A20U U49C A56G G70C | 0.15
A2G A5U A28G G42U A64U | 0.27
A2G A5U C29U U31A | 0.22

Variant | self-cleavage
A2G A5U U25C C38U | 0.1
A2G A5U U26C | 0.59
A2G A5U U26C U41C | 0.19
A2G A5U U26G U43A C68U G70A | 0.07
A2G A13C A15C A21U U25C C29A U60C | 0.08
A2G A13C A18G | 0.17
A2G A13C A35U U49C A65U U74C A75C | 0.55
A2G A13G A15U A20U U54C U78C | 0.07
A2G A13G A15U A35U C44A A75U | 0.08
A2G A13G U26A U48C | 0.24
A2G A13G U31A C32G G63A | 0.36
A2G A13G U60C | 0.55
A2G A13G U72C | 0.47
A2G A13U A18G A28G A56G U58G U78C | 0.14
A2G A13U A28G U43C C62U U72C | 0.08
A2G A13U C29U A45U | 0.19
A2G A13U U41A A45C U54C U72A | 0.06
A2G A13U U49A U66C | 0.23
A2G A15G A28U U67A C68A | 0.32
A2G A15G A45G U69C U78C | 0.38
A2G A15G U26C G33A | 0.38
A2G A15U A20U A64G U67G | 0.03
A2G A15U U31C A45G | 0.06
A2G A15U U76C | 0.31

Variant | self-cleavage
A2G A18C U76C | 0.15
A2G A18G A21G U41A U48C U60G U72C | 0
A2G A18G U25A U43A U76C | 0.06
A2G A18G U26C G63A U66C U72A U80C | 0.05
A2G A18G U26C U43C U49C U74C U78C | 0
A2G A18G U31C | 0.08
A2G A18G U48C A57G U78C | 0.12
A2G A18G U69A U78A | 0.09
A2G A18U A28G A35G U49A A65G U80C | 0.06
A2G A18U A35G U41C A56G | 0.33
A2G A18U U58A U67C | 0.12
A2G A18U U80C | 0.54
A2G A20G A21U U26A | 0.26
A2G A20G A45U A56U C62U U74A | 0.14
A2G A20G A56U A77G | 0.15
A2G A20G C29U U43C U58C | 0.47
A2G A20G G33A A35G U49C A75G | 0.34
A2G A20G U26A A45G | 0.42
A2G A20U A56G U66C U76C U80A | 0.09
A2G A21G A28G C32A U41C U54C U74C | 0
A2G A21G A35U C37G U67C | 0.55
A2G A21G A45U U66C | 0.13
A2G A21G G63U U78C | 0.29

Source: the RNAGym collection of RNA variant scans (doi:10.1093/nar/gkz1192)
